The subject of experiment [1] is HSkMC (human skeletal muscle cells). As to the kind of experiment: cytotoxicity call (relative viability < 0.9). Conditions: 10 µM.
Experiment [2] relates to HepG2. As to the kind of experiment: cytotoxicity call (relative viability < 0.9). Conditions: 10 µM.
The test system of experiment [3] is S. aureus RN4220. As to the kind of experiment: growth inhibition call (relative growth <= 0.2). Conditions: 50 µM.

Molecules are shown by their SMILES. The list shows a part of the results.

As to `Cc1ccc(S(=O)(=O)N(C)C[C@@H]2Oc3ccc(NC(=O)Nc4ccc(C(F)(F)F)cc4)cc3C(=O)N([C@H](C)CO)C[C@@H]2C)cc1`, the cytotoxicity call in experiment [1] was “inactive”. Moreover, in experiment [2], the cytotoxicity call is “active”. Moreover, in experiment [3], the growth inhibition call was “inactive”.

In the case of `C[C@@H]1CN([C@@H](C)CO)C(=O)c2cc(NS(C)(=O)=O)ccc2O[C@@H](C)CCCCO[C@H]1CN(C)Cc1ccc(C(F)(F)F)cc1`, the cytotoxicity call in experiment [1] and in experiment [2] was “inactive” each time. Further, in experiment [3], the growth inhibition call is “inactive”.

Regarding `Cc1cncc2cccc(S(=O)(=O)NCCCN(C/C=C/c3ccc(Br)cc3)C/C=C/c3ccc(Br)cc3)c12`, the cytotoxicity call in experiment [1] and in experiment [2] was “inactive” in each case. Further, the growth inhibition call in experiment [3] is “inactive”.

For the compound `CC12CCC(=O)C=C1CCC1C2C(O)CC2(C)C1CCC2(O)C(=O)COP(=O)([O-])[O-].CC[NH+](CC)CC.CC[NH+](CC)CC` (centres undefined), the cytotoxicity call in experiment [1] and in experiment [2] was “inactive” throughout. Further, in experiment [3], the growth inhibition call is “inactive”.

With `CCCNC(=O)N1[C@@H]2c3cccc(=O)n3C[C@H]1[C@H](CO)[C@H]2C(=O)NCC(F)(F)F`, the cytotoxicity call in experiment [1] and in experiment [2] was “inactive” in each case. In addition, the growth inhibition call in experiment [3] was “inactive”.

In the case of `O=C(C=Cc1ccc(O)c(O)c1)C=C(O)C=Cc1ccc(O)c(O)c1`, in experiment [1], the cytotoxicity call was “inactive”. Besides, the cytotoxicity call in experiment [2] is “active”. Also, the growth inhibition call in experiment [3] was “inactive”.

`C[C@H]1CN([C@@H](C)CO)C(=O)c2cc(NS(C)(=O)=O)ccc2O[C@@H]1CN(C)S(C)(=O)=O`: the cytotoxicity call in experiment [1] and in experiment [2] was “inactive” in each case. Besides, the growth inhibition call in experiment [3] is “inactive”.

On to `C[C@@H]1CCCCO[C@@H](CN(C)C(=O)Nc2cccc3ccccc23)[C@@H](C)CN([C@H](C)CO)C(=O)c2cc(NC(=O)Cc3ccccc3)ccc2O1`, for which the cytotoxicity call in experiment [1] and in experiment [2] was “inactive” each time. Besides, the growth inhibition call in experiment [3] is “inactive”.

On to `C[C@@H]1CCCCO[C@@H](CN(C)Cc2ccc(Cl)c(Cl)c2)[C@@H](C)CN([C@@H](C)CO)C(=O)c2cc(NC(=O)Nc3cccc4ccccc34)ccc2O1`, for which the cytotoxicity call in experiment [1] was “inactive”. In addition, the cytotoxicity call in experiment [2] is “active”. Also, in experiment [3], the growth inhibition call is “inactive”.

In the case of `Cc1ccc(S(=O)(=O)N(C)C[C@@H]2Oc3cc(C#Cc4ccncc4)ccc3S(=O)(=O)N([C@H](C)CO)C[C@H]2C)cc1`, the cytotoxicity call in experiment [1] is “inactive”. Further, the cytotoxicity call in experiment [2] is “active”. For the same compound, the growth inhibition call in experiment [3] was “inactive”.

As to `Cc1ncc([N+](=O)[O-])n1C`, the cytotoxicity call in experiment [1] and in experiment [2] was “inactive” in each case. For the same compound, the growth inhibition call in experiment [3] was “inactive”.

Consider `C[C@H](CO)N1C[C@H](C)[C@H](CN(C)C(=O)Nc2ccc3c(c2)OCCO3)OCc2cnnn2CCCC1=O`, for which the cytotoxicity call in experiment [1] and in experiment [2] was “inactive” in each case. For the same compound, in experiment [3], the growth inhibition call is “inactive”.

Consider `OCc1cncnc1`, for which the cytotoxicity call in experiment [1] and in experiment [2] was “inactive” each time. Moreover, the growth inhibition call in experiment [3] was “inactive”.

Regarding `C[C@H]1CN([C@@H](C)CO)C(=O)c2cc(NC(=O)CCCN(C)C)ccc2O[C@H]1CN(C)Cc1ccncc1`, the cytotoxicity call in experiment [1] and in experiment [2] was “inactive” throughout. Further, the growth inhibition call in experiment [3] is “inactive”.

With `O=C(C[C@@H]1C[C@H]2c3cc(NS(=O)(=O)c4ccc(F)cc4)ccc3O[C@H]2[C@H](CO)O1)NCc1ccncc1`, the cytotoxicity call in experiment [1] and in experiment [2] was “inactive” in each case. In addition, in experiment [3], the growth inhibition call was “inactive”.

`C[C@H]1CN([C@@H](C)CO)C(=O)c2cc(NS(=O)(=O)c3cn(C)cn3)ccc2O[C@@H]1CN(C)C(=O)NC1CCCCC1`: the cytotoxicity call in experiment [1] and in experiment [2] was “inactive” in each case. The growth inhibition call in experiment [3] was “inactive”.

As to `C[C@@H]1CCCCO[C@H](CN(C)S(=O)(=O)c2ccc(Cl)cc2)[C@H](C)CN([C@@H](C)CO)C(=O)c2cc(NC(=O)c3ccccc3)ccc2O1`, the cytotoxicity call in experiment [1] and in experiment [2] was “inactive” throughout. Further, the growth inhibition call in experiment [3] is “inactive”.

For `CC(C)C[C@H](NC(=O)CNC(=O)c1cc(Cl)ccc1Cl)B1OC(=O)C[C@](CC(=O)O)(C(=O)O)O1`, the cytotoxicity call in experiment [1] and in experiment [2] was “active” in each case. Also, the growth inhibition call in experiment [3] was “inactive”.

For `NCCCC[C@@H](N)C(=O)N[C@@H](Cc1c[nH]c2ccccc12)C(=O)N[C@@H](CCCCN)C(=O)O`, the cytotoxicity call in experiment [1] and in experiment [2] was “inactive” throughout. Besides, in experiment [3], the growth inhibition call was “inactive”.

`CCC/C=C1\OC(=O)c2ccccc21`: the cytotoxicity call in experiment [1] and in experiment [2] was “inactive” in each case. In experiment [3], the growth inhibition call was “inactive”.

Consider `C[C@@H]1CCCCO[C@H](CN(C)C(=O)CCCN(C)C)[C@@H](C)CN([C@H](C)CO)C(=O)c2cc(NC(=O)Nc3ccc(F)cc3)ccc2O1`, for which the cytotoxicity call in experiment [1] and in experiment [2] was “inactive” in each case. Further, in experiment [3], the growth inhibition call is “inactive”.

For `COCCOC(=O)N1C(=O)[C@@]2(c3cc(C#CC4=CCCCC4)ccc31)[C@H](C(=O)N1CCN(c3ncccn3)CC1)[C@H]1C(=O)O[C@H](c3ccccc3)[C@H](c3ccccc3)N1[C@@H]2c1ccc(O)cc1`, the cytotoxicity call in experiment [1] and in experiment [2] was “inactive” in each case. The growth inhibition call in experiment [3] is “inactive”.

For `C[C@H](CO)N1C[C@H](C)[C@H](CN(C)C(=O)Nc2ccc3c(c2)OCO3)Oc2ccc(NS(C)(=O)=O)cc2CC1=O`, the cytotoxicity call in experiment [1] and in experiment [2] was “inactive” in each case. In addition, the growth inhibition call in experiment [3] was “inactive”.

For the compound `CC(C)(N)c1ccc(F)cc1`, the cytotoxicity call in experiment [1] and in experiment [2] was “inactive” each time. Also, in experiment [3], the growth inhibition call was “inactive”.

Consider `COC1=C2C[C@@H](C)C[C@H](OC)[C@H](O)[C@@H](C)/C=C(\C)[C@H](OC(N)=O)[C@@H](OC)/C=C\C=C(/C)C(=O)NC(=CC1=O)C2=O`, for which the cytotoxicity call in experiment [1] is “inactive”. Moreover, the cytotoxicity call in experiment [2] was “active”. Besides, in experiment [3], the growth inhibition call was “inactive”.

Take `C[C@H]1CN([C@@H](C)CO)C(=O)c2cc(NS(=O)(=O)c3ccccc3)ccc2O[C@H]1CN(C)C(=O)Nc1cccc2ccccc12`: the cytotoxicity call in experiment [1] and in experiment [2] was “inactive” in each case. In addition, the growth inhibition call in experiment [3] was “inactive”.

As for `CO[C@@H]1CN(C)C(=O)c2cc(NC(=O)c3ccccc3)ccc2OC[C@@H](C)N(C(=O)CN(C)C)C[C@H]1C`, the cytotoxicity call in experiment [1] and in experiment [2] was “inactive” in each case. The growth inhibition call in experiment [3] is “inactive”.

For `COc1ccc(NC(=O)N(C)C[C@@H]2Oc3c(NS(C)(=O)=O)cccc3C(=O)N([C@H](C)CO)C[C@@H]2C)cc1`, the cytotoxicity call in experiment [1] and in experiment [2] was “inactive” in each case. In addition, the growth inhibition call in experiment [3] was “inactive”.

These data come from the antibiotic and cytotoxicity screens of Wong et al. (2023).
